Experimental data reported in the supplement of paper PMC4967469.
By IC50 is meant the dose at which the fit gives 50% viability; where the fit passes the top or lowest dose, that dose stands as a limit. AUC sums up the same curve from the lowest dose to the 256-fold higher top dose; the more sensitive the line, the further below 1. For some of these results: Where the top dose is marked as inferred, it was derived from the fitted curves, not read from the paper. For some of these results: Drugs with an entry number were screened twice under separate entries, and the two screens often disagree.

Compound: Cc1ccc(C(=O)N(CCCN)[C@@H](c2nc3cc(Cl)ccc3c(=O)n2Cc2ccccc2)C(C)C)cc1 [SB-715992]
Assay: Viability of human cancer cell lines after 72 h of drug (GDSC screen)
Conditions: top dose 0.128 µM; top dose inferred
Experimental: (§1)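 Human cancer cell lines in 384-well plates, medium with 10% serum, drug for 72 h over a 256-fold dose range (nine 2-fold or five 4-fold steps up to the top dose). Adherent lines were fixed and stained with the nucleic acid dye Syto60, suspension lines read with resazurin; signal relative to control wells, capped at 0 and 100%. One two-parameter sigmoid per drug and line, fitted in a mixed model over all curves with the slope shared within a line.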

“COR-L311 (small cell lung carcinoma, suspension)” showed an AUC of 0.827.

In the case of “COR-L311 (small cell lung carcinoma, suspension)”, the IC50 is reported as 0.086 µM.

Compound: c1ccc2c(CCNc3ccc(Nc4ccncc4)cc3)c[nH]c2c1 [JNJ-26854165]
Assay: as above
Conditions: top dose 10 µM
Experimental: as §1

Going from “NCI-H1650 (lung adenocarcinoma, adherent)” to H2810 (mesothelioma, adherent), the AUC rises from 0.827 to 0.839.

“NCI-H1650 (lung adenocarcinoma, adherent)” and H2810 (mesothelioma, adherent) are within 1.5-fold of each other in IC50: 8.86 µM for the first, 7.87 µM for the second.

Compound: CCn1cc(-c2ccnc3[nH]c(-c4cccc(CN(C)C)c4)cc23)c(-c2ccc(NC(=O)N(C)C)cc2)n1 [GSK1070916]
Assay: as above
Conditions: top dose inferred
Experimental: as §1

First: YKG-1 (glioma, adherent, top dose 2.56 µM)
Second: BT-483 (breast, adherent, top dose 2.56 µM)
The AUC of the first is lower: 0.858 for the first, 0.975 for the second.

Compared with “LB647-SCLC (small cell lung carcinoma, semi-adherent, top dose 2.56 µM)”, “42-MG-BA (glioma, adherent, top dose 2.56 µM)” is higher in AUC: 0.614 for the first, 0.965 for the second.

Going from “NCI-H1781 (lung adenocarcinoma, adherent, top dose 2.56 µM)” to “SHP-77 (small cell lung carcinoma, semi-adherent, top dose 2.56 µM)”, the AUC falls from 0.971 to 0.962.

Going from “NB6 (neuroblastoma, adherent, top dose 2.56 µM)” to “NCI-H522 (lung adenocarcinoma, adherent, top dose 2.56 µM)”, the AUC rises from 0.645 to 0.973.

Compared with “SK-MEL-2 (melanoma, adherent, top dose 2.56 µM)”, “TE-5 (oesophagus, adherent, top dose 2.56 µM)” is lower in AUC: 0.981 for the first, 0.97 for the second.

First: MKN1 (stomach, adherent, top dose 2.56 µM)
Second: CS1 (bone, adherent, top dose 2.56 µM)
The AUC of the first is lower: 0.824 for the first, 0.888 for the second.

Going from “NCI-H716 (large intestine, suspension, top dose 2.56 µM)” to “P32-ISH (Burkitt lymphoma, suspension, top dose 2.56 µM)”, the AUC falls from 0.725 to 0.199.

Going from “KYSE-180 (oesophagus, adherent, top dose 2.56 µM)” to “OS-RC-2 (kidney, adherent, top dose 2.56 µM)”, the AUC falls from 0.974 to 0.926.

Compared with “JJN-3 (haematopoietic neoplasm, suspension, top dose 2.56 µM)”, “GMS-10 (glioma, adherent, top dose 2.56 µM)” is higher in AUC: 0.883 for the first, 0.988 for the second.

Going from “SU-DHL-1 (anaplastic large cell lymphoma, suspension, top dose 2.56 µM)” to “SK-CO-1 (large intestine, adherent, top dose 2.56 µM)”, the AUC falls from 0.989 to 0.987.

Going from “THP-1 (acute myeloid leukaemia, suspension, top dose 2.56 µM)” to “LU-135 (small cell lung carcinoma, suspension, top dose 2.56 µM)”, the AUC rises from 0.879 to 0.94.

Compared with “CGTH-W-1 (thyroid, adherent, top dose 2.56 µM)”, “Mewo (melanoma, adherent, top dose 2.56 µM)” is higher in AUC: 0.971 for the first, 0.985 for the second.

Compared with “NB(TU)1-10 (neuroblastoma, adherent, top dose 2.56 µM)”, “GCIY (stomach, adherent, top dose 2.56 µM)” is lower in AUC: 0.993 for the first, 0.972 for the second.

First: VMRC-RCW (kidney, adherent, top dose 2.56 µM)
Second: COLO-679 (melanoma, adherent, top dose 2.56 µM)
The AUC of the first is higher: 0.982 for the first, 0.894 for the second.

Compared with “A253 (head and neck, adherent, top dose 2.56 µM)”, “TK (B-cell lymphoma, suspension, top dose 2.56 µM)” is lower in AUC: 0.937 for the first, 0.89 for the second.

Going from “EW-24 (Ewing sarcoma, semi-adherent, top dose 2.56 µM)” to “RKO (large intestine, adherent, top dose 2.56 µM)”, the AUC falls from 0.993 to 0.857.

Going from “PC-3 [JPC-3] (lung adenocarcinoma, adherent, top dose 2.56 µM)” to “LS-123 (large intestine, adherent, top dose 2.56 µM)”, the AUC falls from 0.936 to 0.899.

Going from “JHH-4 (liver, adherent, top dose 2.56 µM)” to “OV-56 (ovary, adherent, top dose 2.56 µM)”, the AUC rises from 0.975 to 0.988.

Going from “SU-DHL-4 (B-cell lymphoma, suspension, top dose 2.56 µM)” to “EW-16 (Ewing sarcoma, adherent, top dose 2.56 µM)”, the AUC falls from 0.997 to 0.9.

Going from “CW-2 (large intestine, adherent, top dose 2.56 µM)” to “H2869 (mesothelioma, adherent, top dose 2.56 µM)”, the AUC falls from 0.883 to 0.882.

Going from “NCI-H1793 (lung adenocarcinoma, adherent, top dose 2.56 µM)” to “CHL-1 (melanoma, adherent, top dose 2.56 µM)”, the AUC falls from 0.982 to 0.971.

First: RT-112 (bladder, adherent, top dose 2.56 µM)
Second: NB12 (neuroblastoma, adherent, top dose 2.56 µM)
The AUC of the first is lower: 0.432 for the first, 0.833 for the second.

Compared with “TE-15 (oesophagus, suspension, top dose 2.56 µM)”, “WM-115 (melanoma, adherent, top dose 2.56 µM)” is higher in AUC: 0.88 for the first, 0.929 for the second.

First: JHH-6 (liver, adherent, top dose 2.56 µM)
Second: SNU-407 (large intestine, adherent, top dose 2.56 µM)
The AUC of the first is higher: 0.982 for the first, 0.836 for the second.

Compared with “KOPN-8 (B-cell leukaemia, suspension, top dose 2.56 µM)”, “RCC-ER (kidney, adherent, top dose 2.56 µM)” is higher in AUC: 0.125 for the first, 0.984 for the second.

First: SISO (cervix, adherent, top dose 2.56 µM)
Second: NAMALWA (Burkitt lymphoma, suspension, top dose 2.56 µM)
The AUC of the first is higher: 0.932 for the first, 0.865 for the second.

First: TGBC24TKB (biliary tract, adherent, top dose 2.56 µM)
Second: TE-11 (oesophagus, adherent, top dose 2.56 µM)
The AUC of the first is lower: 0.93 for the first, 0.966 for the second.

First: NCI-SNU-16 (stomach, suspension, top dose 2.56 µM)
Second: SW1990 (pancreas, adherent, top dose 2.56 µM)
The AUC of the first is lower: 0.925 for the first, 0.983 for the second.

Compared with “YKG-1 (glioma, adherent, top dose 2.56 µM)”, “BT-483 (breast, adherent, top dose 2.56 µM)” is higher in IC50: 2.16 µM for the first, greater than 2.56 µM for the second.

Compared with “LB647-SCLC (small cell lung carcinoma, semi-adherent, top dose 2.56 µM)”, “42-MG-BA (glioma, adherent, top dose 2.56 µM)” is higher in IC50: 0.344 µM for the first, greater than 2.56 µM for the second.

“NCI-H1781 (lung adenocarcinoma, adherent, top dose 2.56 µM)” and “SHP-77 (small cell lung carcinoma, semi-adherent, top dose 2.56 µM)” cannot be ordered by IC50: greater than 2.56 µM for the first, greater than 2.56 µM for the second.

Compared with “NB6 (neuroblastoma, adherent, top dose 2.56 µM)”, “NCI-H522 (lung adenocarcinoma, adherent, top dose 2.56 µM)” is higher in IC50: 0.446 µM for the first, greater than 2.56 µM for the second.

“SK-MEL-2 (melanoma, adherent, top dose 2.56 µM)” and “TE-5 (oesophagus, adherent, top dose 2.56 µM)” cannot be ordered by IC50: greater than 2.56 µM for the first, greater than 2.56 µM for the second.

Compared with “MKN1 (stomach, adherent, top dose 2.56 µM)”, CS1 (bone, adherent, top dose 2.56 µM) is higher in IC50: 1.64 µM for the first, greater than 2.56 µM for the second.

Going from “NCI-H716 (large intestine, suspension, top dose 2.56 µM)” to “P32-ISH (Burkitt lymphoma, suspension, top dose 2.56 µM)”, the IC50 falls from 0.834 µM to 0.0283 µM (29-fold).

“KYSE-180 (oesophagus, adherent, top dose 2.56 µM)” and “OS-RC-2 (kidney, adherent, top dose 2.56 µM)” cannot be ordered by IC50: greater than 2.56 µM for the first, greater than 2.56 µM for the second.

Compared with “JJN-3 (haematopoietic neoplasm, suspension, top dose 2.56 µM)”, “GMS-10 (glioma, adherent, top dose 2.56 µM)” is higher in IC50: 1.89 µM for the first, greater than 2.56 µM for the second.

“SU-DHL-1 (anaplastic large cell lymphoma, suspension, top dose 2.56 µM)” and “SK-CO-1 (large intestine, adherent, top dose 2.56 µM)” cannot be ordered by IC50: greater than 2.56 µM for the first, greater than 2.56 µM for the second.

Going from “THP-1 (acute myeloid leukaemia, suspension, top dose 2.56 µM)” to “LU-135 (small cell lung carcinoma, suspension, top dose 2.56 µM)”, the IC50 rises from 2.18 µM to greater than 2.56 µM.

“CGTH-W-1 (thyroid, adherent, top dose 2.56 µM)” and “Mewo (melanoma, adherent, top dose 2.56 µM)” cannot be ordered by IC50: greater than 2.56 µM for the first, greater than 2.56 µM for the second.

“NB(TU)1-10 (neuroblastoma, adherent, top dose 2.56 µM)” and “GCIY (stomach, adherent, top dose 2.56 µM)” cannot be ordered by IC50: greater than 2.56 µM for the first, greater than 2.56 µM for the second.

“VMRC-RCW (kidney, adherent, top dose 2.56 µM)” and “COLO-679 (melanoma, adherent, top dose 2.56 µM)” cannot be ordered by IC50: greater than 2.56 µM for the first, greater than 2.56 µM for the second.

First: A253 (head and neck, adherent, top dose 2.56 µM)
Second: TK (B-cell lymphoma, suspension, top dose 2.56 µM)
The IC50 of the first is higher: greater than 2.56 µM for the first, 2.51 µM for the second.

Going from “EW-24 (Ewing sarcoma, semi-adherent, top dose 2.56 µM)” to “RKO (large intestine, adherent, top dose 2.56 µM)”, the IC50 falls from greater than 2.56 µM to 1.85 µM.

“PC-3 [JPC-3] (lung adenocarcinoma, adherent, top dose 2.56 µM)” and “LS-123 (large intestine, adherent, top dose 2.56 µM)” cannot be ordered by IC50: greater than 2.56 µM for the first, greater than 2.56 µM for the second.

“JHH-4 (liver, adherent, top dose 2.56 µM)” and “OV-56 (ovary, adherent, top dose 2.56 µM)” cannot be ordered by IC50: greater than 2.56 µM for the first, greater than 2.56 µM for the second.

“SU-DHL-4 (B-cell lymphoma, suspension, top dose 2.56 µM)” and “EW-16 (Ewing sarcoma, adherent, top dose 2.56 µM)” cannot be ordered by IC50: greater than 2.56 µM for the first, greater than 2.56 µM for the second.

“CW-2 (large intestine, adherent, top dose 2.56 µM)” and “H2869 (mesothelioma, adherent, top dose 2.56 µM)” cannot be ordered by IC50: greater than 2.56 µM for the first, greater than 2.56 µM for the second.

“NCI-H1793 (lung adenocarcinoma, adherent, top dose 2.56 µM)” and “CHL-1 (melanoma, adherent, top dose 2.56 µM)” cannot be ordered by IC50: greater than 2.56 µM for the first, greater than 2.56 µM for the second.

First: RT-112 (bladder, adherent, top dose 2.56 µM)
Second: NB12 (neuroblastoma, adherent, top dose 2.56 µM)
The IC50 of the first is 24-fold lower: 0.103 µM for the first, 2.51 µM for the second.

“TE-15 (oesophagus, suspension, top dose 2.56 µM)” and “WM-115 (melanoma, adherent, top dose 2.56 µM)” cannot be ordered by IC50: greater than 2.56 µM for the first, greater than 2.56 µM for the second.

First: JHH-6 (liver, adherent, top dose 2.56 µM)
Second: SNU-407 (large intestine, adherent, top dose 2.56 µM)
The IC50 of the first is higher: greater than 2.56 µM for the first, 2.11 µM for the second.

Compared with “KOPN-8 (B-cell leukaemia, suspension, top dose 2.56 µM)”, “RCC-ER (kidney, adherent, top dose 2.56 µM)” is higher in IC50: 0.0133 µM for the first, greater than 2.56 µM for the second.

Compared with “SISO (cervix, adherent, top dose 2.56 µM)”, “NAMALWA (Burkitt lymphoma, suspension, top dose 2.56 µM)” is lower in IC50: greater than 2.56 µM for the first, 1.7 µM for the second.

“TGBC24TKB (biliary tract, adherent, top dose 2.56 µM)” and “TE-11 (oesophagus, adherent, top dose 2.56 µM)” cannot be ordered by IC50: greater than 2.56 µM for the first, greater than 2.56 µM for the second.

“NCI-SNU-16 (stomach, suspension, top dose 2.56 µM)” and “SW1990 (pancreas, adherent, top dose 2.56 µM)” cannot be ordered by IC50: greater than 2.56 µM for the first, greater than 2.56 µM for the second.

Compound: Cc1sc2c(c1C)C(c1ccc(Cl)cc1)=N[C@@H](CC(=O)OC(C)(C)C)c1nnc(C)n1-2 [JQ1]
Assay: as above
Conditions: top dose 1 µM; screen: GDSC drug entry 1218; top dose inferred
Experimental: as §1

First: NCI-H1650 (lung adenocarcinoma, adherent)
Second: H2810 (mesothelioma, adherent)
The AUC of the first is lower: 0.977 for the first, 0.984 for the second.

In the case of “COR-L32 (small cell lung carcinoma, suspension)”, the AUC is reported as 0.955.

“NCI-H1650 (lung adenocarcinoma, adherent)” and H2810 (mesothelioma, adherent) cannot be ordered by IC50: greater than 1 µM for the first, greater than 1 µM for the second.

Cell Line “COR-L32 (small cell lung carcinoma, suspension)” has an IC50 greater than 1 µM.
